In patent US11466066B2, “Variants of human BMP7 protein” (ELI LILLY AND COMPANY, priority 2017, dated 2022):

Assays:
[1] = system: SOX2; assay: SOX2 expression in GBM cells; type: cell-based, human; details: ATRA 1 μg/ml, F9 100 ng/mL
Protocol: Glioblastoma multiforme stem cells (GBMs) may be obtained from patients with primitive brain tumors undergoing complete or partial surgical resection. These cells may be maintained as neurospheres in defined media with 3.34 g/L of DMEM and 2.66 g/L F12 reconstituted in sterile distilled water and containing 1% glucose, 0.12% sodium bicarbonate, 5 mM hepes, 2 mM L-glutamine, 4 mg/L heparin, 10 ng/mL bFGF, 20 ng/mL EGF, 0.4% BSA, 100 μg/mL apotransferrin, 25 μg/mL insulin, 60 uM putrescine, 30 nM sodium selenite, and 20 nM progesterone. Cells may be cultured at 37° C. in 5% CO2. Cells may be plated by enzymatically dispersing spheres into single cells with a 2-5 minute incubation at 37° C. with TrypLE™ Express cell dissociation enzyme. The enzyme may be quenched with Dulbecco's Phosphate Buffered Saline (DPBS) containing Ca+ and Mg+. Then the cells may centrifuged to remove TrypLE and DPBS and resuspended as single cells in defined media and counted by a Coulter Z2 Cell and Particle counter.
Single GBM cells may be plated in defined media at 2×10^6 cells/15 mL/T75 flask for high content imaging or 5×10^5 cells/2 mL/well in 6-well plates for light microscopy. Cells may be treated with 0.01% DMSO, 1 μg/mL ATRA, 100 ng/mL of a human BMP7 protein variant of the present invention (e.g., human BMP7 protein variant F9 (SEQ ID NO: 8)), or a combination of 1 μg/mL ATRA and 100 ng/mL human BMP7 protein variant of the present invention. For light microscopy imaging of the effect of control BMPs (BMP2 and BMP4), cells may be plated as above in 6-well dishes and treated with 0.01% DMSO, 1 μg/mL ATRA, 100 ng/mL BMP2, 50 ng/mL BMP4, or a combination of BMPs at the same concentrations plus 1 μg/mL ATRA. Example images may be captured at 3, 7, and 30 days post-treatment on a Leica DMIRM inverted microscope using a 20× objective, for example. For growth longer than 7 days, media and treatment may be changed approximately every 10 days beginning at day 10. […]

[2] = system: growth factor established endothelial cords; assay: Established cord assay; type: cell-based; details: 100, 50, 25, and 12.5 ng/ml; cords formed 120 hours with growth factors before treatment
Source text: An in vitro endothelial cord formation assay, a surrogate of angiogenesis, may be used to investigate the role of human BMP7 proteins on various growth factor established cords including, but not limited to, VEGF, basic FGF, and EGF established cords. Endothelial cord forming cells (ECFCs; passage 4-10 suitable for cord formation) may be cultured in EGM-2 MV (Lona) media containing a final concentration of 10% FBS and passaged onto type 1 collagen (fibrillar) coated flasks prior to seeding into the cord formation assay in vitro. Adipocyte derived stem cells (Zen-Bio, cells frozen at passage 4; cells at passage 5 or greater not assayed) may be cultured in EGM-2 MV (Lonza) media prior to plating at 50,000 cells per well (into 96-well black poly-D-lysine coated plates) in co-culture media [for example, MCDB-131 media (Invitrogen) supplemented with 30 μg/ml L-ascorbic acid 2-phosphate, 1 μM dexamethasone, 50 μg/ml tobramycin, 10 μg/ml insulin (all from Sigma-Aldrich), and 10 μg/ml cell prime r-transferrin AF (Millipore, Billerica, Mass.)] for 24 hours. Adipocyte derived stem cell (ADSC) media may be removed and 5,000 ECFCs (Lonza) per well may be over seeded. […]

B1: Human pro-BMP7 Variant F9: wild type pro-domain + variant mature BMP7 F9 (402 aa), SEQ ID NO: 16 (protein)
chain: DFSLDNEVHSSFIHRRLRSQERREMQREILSILGLPHRPRPHLQGKHNSAPMFMLDLYNAMAVEEGGGPGGQGFSYPYKAVFSTQGPPLASLQDSHFLTDADMVMSFVNLVEHDKEFFHPRYHHREFRFDLSKIPEGEAVTAAEFRIYKDYIRERFDNETFRISVYQVLQEHLGRESDLFLLDSRTLWASEEGWLVFDITATSNHWVVNPRHNLGLQLSVETLDGQSINPKLAGLIGRHGPQNKQPFMVAFFKATEVHFRSIRSTGSKQRSQNRSKTPKNQEALRMANVAENSSSDQRQACKKHELYVSFRDLGWQDWIIAPEGYAAGYCEGECAFPLNSYMNATNHALVQTLVHVINPETVPKPCCAPTQLGAISVLYFDDSSNVILKKWRNMVVRACGCH
[1]; GBM clone CL-1, Day 3
  SOX2 percent responders normalized to vehicle control: 100%
[1]; GBM clone CL-61, Day 0
  SOX2 percent responders normalized to vehicle control: 84%
[1]; GBM clone Cl-1, Day 25
  SOX2 percent responders normalized to vehicle control: 72%
[2]
  established cord connected tube area (% PBS control): reduce established cord connected tube area
